The source of these data is the supplement of paper PMC12230231.

± gives the standard deviation of the averaged measurements. Restriction of a single-cycle SIVsab GFP reporter by TRIM5α v1-loop variants in CRFK cells. Human variants: read share among cells still uninfected after two challenges over input, higher = gained restriction. Rhesus variants: share among infected cells over input, higher = lost restriction. Reporter dose not given per row. No active / inactive call per row; the paper calls a change when both replicates lie above its controls (mean + 2 SD of stop or wild-type variants, or the top frameshift score). Residues outside the varied loop are taken from Swiss-Prot. The paper reads the human single-substitution scores as noise; they and the rhesus combinations repeat poorly (rank correlation 0.3 to 0.4), indel scores repeat only for the top variants, rhesus substitutions well (0.9).

The data set relates to SIVsab (simian immunodeficiency virus of sabaeus monkeys), single-cycle GFP reporter, in CRFK cells. Briefly: enrichment among uninfected cells over input (fold); higher = stronger restriction. Conditions: library: insertions and deletions. As for the experimental part: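 Pools of CRFK cells expressing variants of the TRIM5α v1 loop were challenged with the single-cycle reporter, sorted by GFP and sequenced; mean of two replicates.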
In the case of “MASGILVNVKEEVTCPICLELLTQPLSLDCGHSFCQACLTANHKKSMLDKGESSCPVCRISYQPENIRPNRHVANIVEKLREVKLSPEGQKVDHCARHGEKLLLFCQEDGKVICWLCERSQEHRGHHTFLTEEVAREYQVKLQAALEMLRQKQQEAEELEADIREEKASWKTQIQYDKTNVLADFEQLRDILDWEESNELQNLEKEEEDILKSLTNSETEMVQQTQSLRELISDLEHRLQGSVMELLQGVDGVIKRTENVTLKKPETFPKNQRRVFRAPDLKGMLEVFRELTDVRRYWVDVTVAPNNISCAVISEDKRQVSSPKPQIIYGARGTRYQTFVNYQTFVNFNYCTGILGSQSITSGKHYWEVDVSKKTAWILGVCAGFQPDAMCNIEKNENYQPKYGYWVIGLEEGVKCSAFQDSSFHTPSVPFIVPLSVIICPDRVGVFLDYEACTVSFFNITNHGFLIYKFSHCSFSQPVFPYLNPRKCGVPMTLCSPSS [human TRIM5α, 6-codon duplication at 336]”, the enrichment amounted to 0.117 ± 0.031.

In turn, “MASGILVNVKEEVTCPICLELLTQPLSLDCGHSFCQACLTANHKKSMLDKGESSCPVCRISYQPENIRPNRHVANIVEKLREVKLSPEGQKVDHCARHGEKLLLFCQEDGKVICWLCERSQEHRGHHTFLTEEVAREYQVKLQAALEMLRQKQQEAEELEADIREEKASWKTQIQYDKTNVLADFEQLRDILDWEESNELQNLEKEEEDILKSLTNSETEMVQQTQSLRELISDLEHRLQGSVMELLQGVDGVIKRTENVTLKKPETFPKNQRRVFRAPDLKGMLEVFRELTDVRRYWVDVTVAPNNISCAVISEDKRQVSSPKPQIIYGARGTRYQTFVQTFVNFNYCTGILGSQSITSGKHYWEVDVSKKTAWILGVCAGFQPDAMCNIEKNENYQPKYGYWVIGLEEGVKCSAFQDSSFHTPSVPFIVPLSVIICPDRVGVFLDYEACTVSFFNITNHGFLIYKFSHCSFSQPVFPYLNPRKCGVPMTLCSPSS [human TRIM5α, 4-codon duplication at 337]” yielded an enrichment of 2.36 ± 3.3.

“MASGILVNVKEEVTCPICLELLTQPLSLDCGHSFCQACLTANHKKSMLDKGESSCPVCRISYQPENIRPNRHVANIVEKLREVKLSPEGQKVDHCARHGEKLLLFCQEDGKVICWLCERSQEHRGHHTFLTEEVAREYQVKLQAALEMLRQKQQEAEELEADIREEKASWKTQIQYDKTNVLADFEQLRDILDWEESNELQNLEKEEEDILKSLTNSETEMVQQTQSLRELISDLEHRLQGSVMELLQGVDGVIKRTENVTLKKPETFPKNQRRVFRAPDLKGMLEVFRELTDVRRYWVDVTVAPNNISCAVISEDKRQVSSPKPQIIYGARGTRYQTFVRGTRYQTFVNFNYCTGILGSQSITSGKHYWEVDVSKKTAWILGVCAGFQPDAMCNIEKNENYQPKYGYWVIGLEEGVKCSAFQDSSFHTPSVPFIVPLSVIICPDRVGVFLDYEACTVSFFNITNHGFLIYKFSHCSFSQPVFPYLNPRKCGVPMTLCSPSS [human TRIM5α, 9-codon duplication at 332]” had an enrichment of 0.268 ± 0.098.

“MASGILVNVKEEVTCPICLELLTQPLSLDCGHSFCQACLTANHKKSMLDKGESSCPVCRISYQPENIRPNRHVANIVEKLREVKLSPEGQKVDHCARHGEKLLLFCQEDGKVICWLCERSQEHRGHHTFLTEEVAREYQVKLQAALEMLRQKQQEAEELEADIREEKASWKTQIQYDKTNVLADFEQLRDILDWEESNELQNLEKEEEDILKSLTNSETEMVQQTQSLRELISDLEHRLQGSVMELLQGVDGVIKRTENVTLKKPETFPKNQRRVFRAPDLKGMLEVFRELTDVRRYWVDVTVAPNNISCAVISEDKRQVSSPKPQIIYGARGTRYQTFVRYQTFVNFNYCTGILGSQSITSGKHYWEVDVSKKTAWILGVCAGFQPDAMCNIEKNENYQPKYGYWVIGLEEGVKCSAFQDSSFHTPSVPFIVPLSVIICPDRVGVFLDYEACTVSFFNITNHGFLIYKFSHCSFSQPVFPYLNPRKCGVPMTLCSPSS [human TRIM5α, 6-codon duplication at 335]”: the enrichment came out at 0.176 ± 0.16.
